88 compounds from article PMC4336329 (PLoS ONE, 2015) can be followed below.

Molecules are shown by their SMILES. About 14,000 (4.5%) of roughly 310,000 compounds showed an effect of 50% or more. The effect is printed as a negative number. The list shows a part of the results.
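Further: peak tail current of the secondary pulse compared with the same well before compound.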

In this assay the target is human ether-à-go-go-related gene (hERG) potassium channel (human, UniProt Q12809). Kind of assay: primary screen, population patch clamp on CHO cells stably expressing hERG.
Chain of human ether-à-go-go-related gene (hERG) potassium channel (Q12809 whole entry, looked up): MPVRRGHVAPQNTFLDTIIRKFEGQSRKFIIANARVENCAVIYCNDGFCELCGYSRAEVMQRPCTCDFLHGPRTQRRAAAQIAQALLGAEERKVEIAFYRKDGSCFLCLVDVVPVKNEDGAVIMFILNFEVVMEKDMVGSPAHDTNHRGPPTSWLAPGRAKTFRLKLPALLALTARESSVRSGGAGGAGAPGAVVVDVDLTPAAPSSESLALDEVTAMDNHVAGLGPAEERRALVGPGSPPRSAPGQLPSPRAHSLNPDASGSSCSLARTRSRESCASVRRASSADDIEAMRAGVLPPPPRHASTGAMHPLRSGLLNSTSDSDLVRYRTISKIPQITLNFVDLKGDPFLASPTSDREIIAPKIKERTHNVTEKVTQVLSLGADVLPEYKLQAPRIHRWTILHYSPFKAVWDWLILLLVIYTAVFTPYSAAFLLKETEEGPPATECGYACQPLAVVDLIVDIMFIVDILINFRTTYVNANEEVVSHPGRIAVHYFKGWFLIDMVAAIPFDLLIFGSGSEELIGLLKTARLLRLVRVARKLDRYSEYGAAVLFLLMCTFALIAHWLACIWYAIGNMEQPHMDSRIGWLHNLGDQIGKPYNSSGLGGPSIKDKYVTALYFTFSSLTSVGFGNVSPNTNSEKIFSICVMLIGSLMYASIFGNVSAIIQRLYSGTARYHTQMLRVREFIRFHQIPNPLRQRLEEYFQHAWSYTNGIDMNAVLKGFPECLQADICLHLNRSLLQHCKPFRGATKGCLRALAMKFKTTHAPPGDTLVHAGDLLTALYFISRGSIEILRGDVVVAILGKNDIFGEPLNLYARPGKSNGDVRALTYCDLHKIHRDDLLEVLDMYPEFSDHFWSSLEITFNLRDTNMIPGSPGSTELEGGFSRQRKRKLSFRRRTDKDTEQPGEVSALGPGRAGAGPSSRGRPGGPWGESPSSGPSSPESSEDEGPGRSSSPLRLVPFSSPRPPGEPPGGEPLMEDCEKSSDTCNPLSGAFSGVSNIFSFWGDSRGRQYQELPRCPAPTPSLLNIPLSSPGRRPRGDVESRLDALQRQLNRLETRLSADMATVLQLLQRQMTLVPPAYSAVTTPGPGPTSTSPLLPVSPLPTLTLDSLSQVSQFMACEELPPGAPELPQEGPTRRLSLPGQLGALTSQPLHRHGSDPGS
For `Cc1ccc(CNC(=O)C2CCCN(C(=O)N(C)C)C2)cc1` (stereo not shown), the “hERG current change (%, negative = inhibition) at 10uM” value stood at 4.16%. On to `COc1ccccc1C(=O)NCCC(=O)NNC(=O)Cn1ccc(C(F)(F)F)n1`, for which the “hERG current change (%, negative = inhibition) at 10uM” value is reported as -12.2%. As for `CC(C)(Cc1nc2ccccc2[nH]1)C(=O)O`, the “hERG current change (%, negative = inhibition) at 10uM” value stood at 0.303%. The figure for `COc1cc2c(cc1NC(=O)CN1CCN(S(=O)(=O)c3ccc(F)cc3)CC1)oc1ccccc12` is 13.7%; for `CCN1CCN(CCCNC(=O)CCC(=O)N2CC(C)Oc3ccc(C)cc32)CC1` (stereo not shown) it is -12.5%. `COc1ccc2ccn(C)c2c1`: the “hERG current change (%, negative = inhibition) at 10uM” value is reported as 13.2%. The figure for `Cc1cccn2c(=O)c(/C=N/O)c(N3CCCCC3)nc12` is -0.844%. As for `COc1ccc(/C=C2\N=C(C)N(c3ccc4ccccc4c3)C2=O)cc1OC`, the “hERG current change (%, negative = inhibition) at 10uM” value is -3.56%. The figure for `CC(=O)c1ccc(NC(=S)NCCc2ccc(S(N)(=O)=O)cc2)cc1` is 5.38%; for `Cc1ccc(N2C(=O)C(Cl)=C(N3CCOCC3)C2=O)cc1Cl` it is -18.4%. Under `NC(=O)C1CCN(c2ncnc3c2c(-c2ccccc2)cn3-c2ccccc2)CC1` stands 7.86%; under `C=CCc1cccc(/C=N/NC(=O)CCCNc2ccc(C)cc2)c1O`, 11.9%. For `COc1ccc(N(C(=O)c2ccc(Br)o2)C2C=CS(=O)(=O)C2)cc1` (stereo not shown), the “hERG current change (%, negative = inhibition) at 10uM” value is reported as -25.7%. The figure for `COC(=O)/C=C/c1ccccc1CN1[C@@H](CC(=O)OC)c2ccccc2S1(=O)=O` is -10.6%; for `COc1ccc(CC(=O)NCc2ccccc2)cc1S(=O)(=O)N1CCOCC1` it is -8.27%. For `CCN(CC(=O)Nc1ccccc1C(F)(F)F)C(=O)c1oc2c(Cl)cccc2c1C`, the “hERG current change (%, negative = inhibition) at 10uM” value is -23.6%. As to `COc1ccc2c(c1)CCc1c-2n[nH]c1C(=O)O`, the “hERG current change (%, negative = inhibition) at 10uM” value is 17.8%. For `O=C(c1ccccc1)N1CCN(C(=O)C2CC2)CC1`, the “hERG current change (%, negative = inhibition) at 10uM” value stood at 27.4%. In the case of `Cc1cc(C(=O)CCC(=O)NNC(=O)c2ccccc2O)c(C)s1`, the “hERG current change (%, negative = inhibition) at 10uM” value is reported as 1.96%.

`CCC(=O)N1CCc2cc(S(=O)(=O)N(CC)c3cccc(C)c3)ccc21`: the “hERG current change (%, negative = inhibition) at 10uM” value was -4.05%.

As to `O=C1Nc2ccc(Br)cc2C12NNc1ccccc1O2` (stereo not shown), the “hERG current change (%, negative = inhibition) at 10uM” value is reported as 23.9%. `Cc1cccc(C(=O)N=c2c(C#N)cc3c(=O)n4cccc(C)c4nc3n2Cc2ccco2)c1`: the “hERG current change (%, negative = inhibition) at 10uM” value is listed as -65%. Under `Cc1ccc(-c2nc3cc(NC(=O)C(C)C)ccc3o2)cc1` stands 12.5%. For `CCN1CCN(C(=O)c2cc3c(-c4ccc(Cl)cc4)nn(C)c3s2)CC1`, the “hERG current change (%, negative = inhibition) at 10uM” value is -46.7%.

Regarding `CCOC(=O)N1CCN(C(=O)CCN2C(=O)COc3ccc(C)cc32)CC1`, the “hERG current change (%, negative = inhibition) at 10uM” value is recorded as -13.9%. Under `CC1CCN(c2ccc(-c3cccc(NC(=O)C(F)(F)F)c3)nn2)CC1` stands -32.8%.

As to `O=C(CSc1cc(Cl)ccc1Cl)NC1CC1`, the “hERG current change (%, negative = inhibition) at 10uM” value was -6.75%.

Regarding `COC(=O)c1c(C(=O)OC)c2cc(C(=O)c3ccccc3)ccn2c1Cl`, the “hERG current change (%, negative = inhibition) at 10uM” value was determined as 2.15%. On to `Brc1ccccc1OCCCCN1CCCCC1`, for which the “hERG current change (%, negative = inhibition) at 10uM” value is on record as -39.1%. For `C=CCNC(=O)C1CC1(c1ccccc1)c1ccccc1` (stereo not shown), the “hERG current change (%, negative = inhibition) at 10uM” value is recorded as -1.08%. Under `COc1cc(C(=O)Oc2ccccc2/C=N/NC(=O)c2ccc(Cl)cc2)cc(OC)c1OC` stands 12.8%; under `CC1CCCC(NC(=O)CSc2ncccc2C(=O)O)C1C` (stereo not shown), 8%. For `CN(CCOC(=O)c1ccco1)Cc1ccccc1`, the “hERG current change (%, negative = inhibition) at 10uM” value is given as -7.24%. In the case of `COC(=O)CCN(C(=O)c1ccc(N2CCCCC2)c([N+](=O)[O-])c1)c1ccccn1`, the “hERG current change (%, negative = inhibition) at 10uM” value was -2.49%.

`COc1cc2ccccc2cc1C(=O)Nc1ccc(C)cc1`: the “hERG current change (%, negative = inhibition) at 10uM” value is given as 12.3%.

On to `CCOC(=O)c1sc(NC(=O)C(OC(C)=O)c2ccccc2)nc1C` (stereo not shown), for which the “hERG current change (%, negative = inhibition) at 10uM” value is -6.48%. In the case of `CCN(CC)S(=O)(=O)c1ccc(N2CCCC2)c(C(=O)OCC(=O)Nc2cc(C)on2)c1`, the “hERG current change (%, negative = inhibition) at 10uM” value is -17.4%.

Turning to `COc1cc(Cl)ccc1OCc1cc(C(=O)N2C[C@H]3CC[C@H]2C3)no1`, the “hERG current change (%, negative = inhibition) at 10uM” value is recorded as -10.4%. The figure for `Cc1nc2cc(NC(=O)CSc3nc4c(C)cccc4cc3C#N)ccc2s1` is 23.3%.

In the case of `O=Nc1c(-c2cccc([N+](=O)[O-])c2)nc2ncccn12`, the “hERG current change (%, negative = inhibition) at 10uM” value came to 5.17%. The figure for `Cc1nn(Cc2c(Cl)cccc2Cl)c(Cl)c1/C=C/C(=O)OCC(=O)NCC(F)(F)F` is 8.16%; for `C[n+]1c2n(c3ccccc31)N=C(c1ccccc1)CS2.[Br-]` it is -47.3%; for `O=c1c2cc3c(nc2[nH]c(=S)n1-c1ccccc1)CCCC3` it is -7.29%. With `COC(C(=O)N/N=C/c1ccc(OCC(=O)N2CCOCC2)cc1)c1ccccc1` (stereo not shown), the “hERG current change (%, negative = inhibition) at 10uM” value turned out to be 15.9%. The figure for `CN(Cc1ccccc1)C(=O)c1[nH]cnc1C(=O)NCc1ccc(CNC(=O)OC(C)(C)C)cc1` is -6.68%; for `CCN(Cc1nc2ccccc2c(=O)[nH]1)C(=O)COc1ccccc1-c1ccccc1` it is -32%.

In the case of `FC(F)(F)c1cccc(Oc2ccc3c(C(F)(F)F)cc(C(F)(F)F)nc3n2)c1`, the “hERG current change (%, negative = inhibition) at 10uM” value is listed as -0.334%. The figure for `CCCN1CCN(C(=O)Cn2ncc3c([nH]c4ccc(C)cc43)c2=O)CC1` is 4.61%; for `COc1cccc(CNC(=O)c2c(C)nn(-c3ccccc3)c2C)c1` it is 19.2%; for `COc1ccccc1N1CCN(C(=O)Cn2nc(C(F)(F)F)c3c2CCC3)CC1` it is -5.1%. With `CCOC(=O)CSc1n[nH]c(=O)n1CCc1ccccc1`, the “hERG current change (%, negative = inhibition) at 10uM” value was determined as 8.26%. In the case of `COC(=O)Cn1c(CCS(=O)(=O)c2ccc(C)c(C)c2)nc2ccccc21`, the “hERG current change (%, negative = inhibition) at 10uM” value was -3.98%. For `CC(=O)NC(Cc1ccc(F)cc1)C(=O)NC1CCN(C(=O)Nc2ccccc2C)CC1` (stereo not shown), the “hERG current change (%, negative = inhibition) at 10uM” value came to 12.4%. Under `COc1cc(/C=N/NC(=O)c2ccc(CSc3nncn3C)cc2)cc(OC)c1O` stands 31%. Take `CC(C)CC(CO)N1CCN(C(=O)c2ccc(C(C)(C)C)cc2)CCC1=O` (stereo not shown): the “hERG current change (%, negative = inhibition) at 10uM” value is given as 7.77%. Turning to `COC(=O)c1cc(Br)c(=O)n(Cc2cccnc2)c1`, the “hERG current change (%, negative = inhibition) at 10uM” value is listed as 12.1%.

As to `CCOc1ccccc1NC(=O)c1cccc(NC2=NC3CS(=O)(=O)CC3S2)c1` (stereo not shown), the “hERG current change (%, negative = inhibition) at 10uM” value was 7.35%. Consider `COC(=O)c1ccc(CNC(=O)CSc2nnc(COc3ccccc3)n2C)o1`, for which the “hERG current change (%, negative = inhibition) at 10uM” value is -13.8%.

Consider `COc1ccc(-c2nc3ccc([N+](=O)[O-])cc3[nH]2)cc1`, for which the “hERG current change (%, negative = inhibition) at 10uM” value is 13.5%.

With `Cc1nc(SCC(C)C)[nH]c(=O)c1Cc1ccccc1`, the “hERG current change (%, negative = inhibition) at 10uM” value is reported as -0.329%.

For the compound `O=C(NC1CCCCC1)N1CCCc2ccccc21`, the “hERG current change (%, negative = inhibition) at 10uM” value was -3.2%.

With `COc1cc(OC)c(/C=N/NC(=O)COc2cccc3cccnc23)c(OC)c1`, the “hERG current change (%, negative = inhibition) at 10uM” value is listed as -4.3%. Under `O=S(=O)(Cc1nnnn1-c1ccccc1)c1ccc(Cl)cc1` stands 6.74%; under `O=C(c1cc(-c2cccs2)on1)N1CCCCC1`, -9.02%; under `Cc1cc(NC(=O)COC(=O)c2cc(S(=O)(=O)N(C)c3ccccc3)ccc2Cl)no1`, 0.766%. In the case of `C=CCNC(=O)c1ccccc1NC(=O)c1ccccc1`, the “hERG current change (%, negative = inhibition) at 10uM” value is on record as -14.3%. Take `Cc1nn(CC(=O)N2CCN(C)CC2)c(=O)c2ccccc12`: the “hERG current change (%, negative = inhibition) at 10uM” value was -6.14%. Regarding `C=CCn1c(SC)nnc1-c1cccc([N+](=O)[O-])c1`, the “hERG current change (%, negative = inhibition) at 10uM” value was -23.7%. Under `CC/C(=N\NC(=O)CSc1ncccn1)c1ccc2c(c1)OCCO2` stands 11.7%; under `CON(C)S(=O)(=O)c1ccc2c(c1)N(Cc1ccc(C)cc1)C(=O)C1CCCN21` (stereo not shown), 10.3%. The figure for `COc1ccc(Cc2noc(CN3CCCC(C(=O)c4cccs4)C3)n2)cc1OC` (stereo not shown) is 0.434%; for `CC(C)(C)c1cc(C(=O)O)nn1-c1ccccc1` it is 14.5%; for `CCn1cc([N+](=O)[O-])c(C(=O)Nc2ccc(Br)cn2)n1` it is -23.6%. Under `CCOc1cc(/C=C2\C(=O)ON=C2c2ccccc2)ccc1OC` stands 8.39%; under `O=C(Nc1ccnn1C1CCN(CCCC2CCCC2)CC1)c1ccccc1`, -73.1%; under `CCOC(=O)c1c(NC(C)=O)sc2c1CCC(C=O)=C2Sc1ccccc1`, -0.361%. As for `COc1ccc(NC(=O)COc2ccc(C(=O)c3ccc(F)cc3)cc2)cc1S(N)(=O)=O`, the “hERG current change (%, negative = inhibition) at 10uM” value is -24.7%.

With `COC(=O)N/N=C/c1ccc(Oc2ccccc2)cc1`, the “hERG current change (%, negative = inhibition) at 10uM” value was -19.4%. In the case of `N#CCCN(C(=O)CSc1ncccn1)c1ccc2c(c1)OCCO2`, the “hERG current change (%, negative = inhibition) at 10uM” value is reported as 0.457%.

Regarding `COc1ccc(-c2noc(CCC(=O)NCC3CCN(Cc4cccc(C)c4)CC3)n2)cc1`, the “hERG current change (%, negative = inhibition) at 10uM” value is on record as -60.3%.

For the compound `CCCn1c(C(O)c2ccc(OC)cc2)nc2ccccc21` (stereo not shown), the “hERG current change (%, negative = inhibition) at 10uM” value stood at 3.8%. The figure for `Cc1cccc(N2CC(c3nc4ccccc4n3C)CC2=O)c1C` (stereo not shown) is -31.4%; for `c1ccc(CSc2nnnn2-c2ccccc2)cc1` it is -3.94%; for `COc1cc(OC)cc(-c2nnc(Sc3ccc(C=O)cc3[N+](=O)[O-])o2)c1` it is 3.98%. Take `Cc1ccc(C)c(Cn2c(C(=O)O)c(C=O)c3ccccc32)c1`: the “hERG current change (%, negative = inhibition) at 10uM” value was -13.8%. The figure for `CC(=O)Nc1ccc(Nc2nc(-c3cc4ccccc4oc3=O)cs2)cc1` is -0.814%.

Consider `Cc1cccc2cc(CN(Cc3cccs3)C(=S)NCc3ccco3)c(=O)[nH]c12`, for which the “hERG current change (%, negative = inhibition) at 10uM” value is -29.8%. As for `Nc1cc(N)nc(SCC(=O)NNC(=O)c2ccc(Cl)cc2)n1`, the “hERG current change (%, negative = inhibition) at 10uM” value is 4.05%.
